Experimental data published in PubChem BioAssay AID463173 (ICCB-Longwood Screening Facility, Harvard Medical School, 2010).
The whole screen tested about 52,000 compounds, of which about 4,300 (8.3%) were called active. No stated cut-off is given here; in the data, active means survival mostly below about 52% (no sharp cut-off); inactive means mostly above about 56%. Some of the results follow.

The compounds below were run on DeltatarO mutant (assay: growth inhibition of S. aureus wild type versus tarO mutant, primary screen, teichoic acid synthesis inhibitors, RN4220, OD600 (AID 463173)). Settings: OD600, 18 h, hits give low values, screened at 18.75 µg/mL (by protocol).
COc1ccc(-c2csc(N)n2)cc1OC was tested, and the survival was inactive: 77%. With CCOc1ccc(NC(=O)CSC2=Nc3ccccc3C3=NC(Cc4ccccc4)C(=O)N23)cc1 (stereo unspecified) the survival was inactive: 92%. In the case of CCOC(=O)c1c(C)[nH]c(C)c1S(=O)(=O)N1CCCC(C(=O)Nc2cccc(C)n2)C1 (stereo unspecified), the survival was inactive: 115%. CCCn1nc(NC(=O)c2cccc(Cl)c2)c2cc3cccc(C)c3nc21 was tested, and the survival was inactive: 91%. COc1ccc(-c2nc3sc(CCNC(=O)C(=O)Nc4ccc(C)c(F)c4)c(C)n3n2)cc1 was tested, and the survival was inactive: 84%. In the case of Cc1ccc(NC(=O)Cn2c(-c3nonc3N)nc3ccccc32)cc1C, the survival was inactive: 119%. COc1ccccc1CN1CCN(C2CCN(C(=O)Nc3ccccc3)CC2)C(=O)C1=O was tested, and the survival was inactive: 78%. In the case of CCc1ccc(S(=O)(=O)c2cn(C)c3cc(F)c(F)cc3c2=O)cc1, the survival was inactive: 120%. COc1cc(OC)cc(C(=O)Nc2ccc3c(c2)OCCO3)c1 was tested, and the survival was inactive: 61%. For O=C(CNC(=O)c1ccccc1F)OCc1cc(=O)n2nc(C3CC3)sc2n1, the survival was inactive: 107%. In the case of CCOc1ccccc1Nc1nnc(-c2cc3cc(Cl)ccc3oc2=O)s1, the survival was inactive: 80%. CN(C(=O)CSc1nc(-c2ccco2)cc(C(F)(F)F)n1)c1ccccc1 was tested, and the survival was inactive: 92%. In the case of CCC(=O)N1CCc2cc(CNC(=O)c3ccc(C#N)cc3)ccc21, the survival was inactive: 76%. With CCOC(=O)c1ccc(NC(=O)CSc2nc(-c3cccs3)cc(C(F)(F)F)c2C#N)cc1 the survival was inactive: 58%. CCOC(=O)N1CCc2c(sc(NCc3sccc3C)c2C(=O)Nc2cc(Cl)ccc2OC)C1 was tested, and the survival was inactive: 78%. In the case of CCS(=O)(=O)c1nc(S(=O)(=O)c2ccc(C)cc2)c(NCC(C)C)s1, the survival was inactive: 95%. In the case of CC(=O)C1=C(c2ccc(Cl)c(Cl)c2)N(C(C)=O)n2cnnc2S1, the survival was inactive: 126%. With O=C1CN(C(=O)COc2ccc(Cl)cc2)C(c2ccc(F)cc2)c2cc(Br)ccc2N1 (stereo unspecified) the survival was active: 36%. With Cc1ccc(NC(=O)N2CCN(Cc3nc4ccc(C)cc4o3)CC2)c(Cl)c1 the survival was inactive: 84%. CC(Nc1ccc(-c2nc(-c3ccco3)no2)cc1[N+](=O)[O-])c1ccccc1 (stereo unspecified) was tested, and the survival was inactive: 100%. For CN1CCN(CCCNc2c(N)c(=O)oc3ccccc23)CC1, the survival was inactive: 86%. For CCS(=O)(=O)c1oc(-c2ccc(F)cc2)nc1S(=O)(=O)c1ccc(Br)cc1, the survival was active: -5%. In the case of CC(C)(C)C(=O)Nc1cccc(C(=O)OCc2cc(=O)n3nc(C4CC4)sc3n2)c1, the survival was inactive: 84%. In the case of COc1ccccc1N1CCN(S(=O)(=O)CCNC(=O)C2CC(=O)N(c3ccccc3)C2)CC1 (stereo unspecified), the survival was inactive: 72%. With COc1cc(NC(=O)c2cc3ccc4cccnc4c3[nH]2)cc(OC)c1OC the survival was inactive: 69%. In the case of CCOC(=O)c1ccc(NC(=O)CC2C(=O)N(c3ccc(C)cc3)C(=O)N2C2CCCC2)cc1 (stereo unspecified), the survival was inactive: 126%. For CN(Cc1ccccc1)C(=O)C1CCC(CNS(=O)(=O)c2ccc3c(c2)CCCC(=O)N3)CC1 (stereo unspecified), the survival was inactive: 135%. Cc1ccc(N2CCN(C(=O)C3CCN(c4ncnc5c4nc4n5CCCCC4)CC3)CC2)c(C)c1 was tested, and the survival was inactive: 79%. Cc1ccc2nc(NC(=O)c3nc(SCc4ccccc4C)ncc3Cl)sc2c1 was tested, and the survival was inactive: 98%. In the case of Cc1ccc(S(=O)(=O)N2CCC(NC(=O)c3ccccc3)CC2)cc1, the survival was inactive: 56%. CC(/C=C/c1ccccc1)=N\Nc1nc2c(c(=O)[nH]c(=O)n2C)n1CC(O)COC(C)C (stereo unspecified) was tested, and the survival was inactive: 84%. In the case of COCCCNC(=O)c1cnn(-c2ccc(F)cc2F)c1C1CCNCC1, the survival was inactive: 112%. With O=C(NC1CCCCC1)N1CCN(Cc2ccccc2)CC1 the survival was inactive: 69%. In the case of Nc1ccc2nc(-c3ccc(O)cc3)sc2c1, the survival was inactive: 120%. For COc1ccc(NC(=O)CC2C(=O)N(c3ccc(F)cc3)C(=O)N2CCc2sccc2C)cc1 (stereo unspecified), the survival was inactive: 69%. Cc1ccc2scc(N3CCCCC3)c(=O)c2c1 was tested, and the survival was inactive: 78%. For Cc1ccc(N2CCN(C(=O)c3c(C)oc4ncnc(N5CCOCC5)c34)CC2)c(C)c1, the survival was inactive: 94%. Cc1ccc(C)c(Nc2cc(C(=O)NCCCN(C)C3CCCCC3)c3ccccc3n2)c1 was tested, and the survival was inactive: 78%. For Cc1ccc(N2C(=O)CS(=O)(=O)C23C(=O)N(C)c2ccccc23)cc1F (stereo unspecified), the survival was inactive: 101%. For COc1cc(NC(=O)NCC2CCN(Cc3ccc(C)cc3)CC2)cc(OC)c1OC, the survival was inactive: 126%. Cc1cc(N2CCCC(O)C2)n2nc(C)c(-c3ccc(F)cc3)c2n1 (stereo unspecified) was tested, and the survival was inactive: 96%. For Cc1ccc(CN2CCCn3nc(C(=O)NCc4cc(C)ccc4C)cc3C2=O)cc1, the survival was inactive: 70%. For Cc1ccc(C(=O)Nc2nnc(S(=O)(=O)N3CCN(c4ccc(F)cc4)CC3)s2)cc1, the survival was inactive: 56%. In the case of O=[N+]([O-])c1cc(-c2nc(-c3ccccn3)no2)ccc1NCc1ccccc1, the survival was active: 39%. For Cc1ccc(CNC(=O)c2cnc3c(-c4ccccc4)c(C)nn3c2C)o1, the survival was inactive: 95%. For Cc1cc(C)c(NC(=O)CS(=O)CC(=O)N2CCN(c3ccccc3)CC2)c(C)c1 (stereo unspecified), the survival was inactive: 90%. Cc1ccc2ncc(C(=O)NC(C)c3ccccc3)c(=O)n2c1 (stereo unspecified) was tested, and the survival was inactive: 97%. CCc1nn(CC(=O)NCCCc2ccccc2)c(=O)c2cc3c(OC)cccc3n12 was tested, and the survival was inactive: 85%. In the case of COc1ccc(CNC(=O)c2ccc(CSc3nc4ccncc4n3Cc3ccccc3F)cc2)cc1, the survival was inactive: 62%. For CCc1cccc(NC(=O)CSc2ncc3c(n2)-c2ccccc2N(CC)S3(=O)=O)c1, the survival was inactive: 101%. For COc1ccc(NC(=O)C(C)n2nc(-c3cc(C)ccc3C)c3c(c2=O)CCCC3)cc1 (stereo unspecified), the survival was active: 38%. For O=C(NCCc1ccccc1)C(=O)NCC(c1ccco1)S(=O)(=O)c1ccccc1 (stereo unspecified), the survival was inactive: 77%. For COCCNC(=O)CSc1nc2cc3c(cc2c(=O)n1Cc1ccc(C(=O)NCCc2ccc(OC)c(OC)c2)cc1)OCO3, the survival was inactive: 88%. With CCOc1ccc(NC(=O)CSc2nnc(-c3ccncc3)n2-c2ccccc2)cc1 the survival was inactive: 122%. With Cn1cc(S(=O)(=O)N2CCCCC2)cc1C(=O)N1CCN(c2ccccc2F)CC1 the survival was inactive: 95%. With COc1cc(OC)cc(C(=O)c2coc3ccc(O)c(CN4CCOCC4)c23)c1 the survival was inactive: 77%.
